Among the data in the supplement of paper PMC10681739 are ETS1 binding intensity values, retold here.

± gives the standard deviation of the averaged measurements. In all, about 4,100 sequences were measured (“arbitrary fluorescence units”: median about 780, highest 2% from about 22,000 on). The list shows a part of the results.

This test concerns the target T1, ETS1 (UniProt P14921).
T1 sequence: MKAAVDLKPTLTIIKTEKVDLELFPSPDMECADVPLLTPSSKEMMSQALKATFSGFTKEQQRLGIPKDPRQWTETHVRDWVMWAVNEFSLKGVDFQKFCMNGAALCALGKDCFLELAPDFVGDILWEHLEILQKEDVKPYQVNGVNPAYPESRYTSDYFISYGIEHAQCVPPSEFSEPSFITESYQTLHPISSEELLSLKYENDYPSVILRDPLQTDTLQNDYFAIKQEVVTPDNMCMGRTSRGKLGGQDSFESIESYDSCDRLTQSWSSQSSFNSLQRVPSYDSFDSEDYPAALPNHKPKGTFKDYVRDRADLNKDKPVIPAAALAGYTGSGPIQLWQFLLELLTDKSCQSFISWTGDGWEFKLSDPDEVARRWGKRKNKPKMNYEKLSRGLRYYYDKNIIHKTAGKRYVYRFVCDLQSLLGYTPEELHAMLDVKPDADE
Briefly: ETS1 binding intensity (PBM fluorescence), ETS1 alone (arbitrary fluorescence units); higher = stronger binding. As to conditions: ETS1 concentration 1 nM; RUNX1 concentration 0 nM. In outline: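 Double-stranded Agilent 4 × 180k arrays held 36-bp genomic probes whose RUNX1 partner site was mutated, and these were incubated with 1 nM full-length recombinant human ETS1 in the absence of RUNX1 under standard PBM protocols. Bound protein was labelled with anti-ETS1 antibody (Cell Signaling Technology 14069) plus an Alexa488-conjugated secondary and read on a GenePix 4400A, with four spots printed per sequence. Binding level is reported as raw spot fluorescence intensity summarised over replicate spots.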
On to AGGTGTACTTTCCGGGTGCAGACAGCGAATGGATCG, for which the ETS1 binding intensity was 1310.

Take TCCTAGCCATTTCCTATCCACCCTGTGCCTAATTTG: the ETS1 binding intensity was determined as 4090.

In the case of CCTACGGGGGGTGCGTGGGCGGGACTTCCGGCTCCT, the ETS1 binding intensity was determined as 5570.

With ACGATTTTTACACATCCCCGTGCCACCGAATGGCGT, the ETS1 binding intensity turned out to be 537.

Take GCCGTCCCCAGCGCTCGCAGCCACCAGGAAACCCCG: the ETS1 binding intensity came to 397.

As to AATATAGGAAGTGTCAGCTAGGGAACTCAACCCCAA, the ETS1 binding intensity came out at 1120.

TGATTCTGGGAAATGTCGATCGGCTGTGAGCGGCGC: the ETS1 binding intensity worked out at 297.

In turn, GACTGGGGCTCTTCCTCGGGCAGCGGAAGCGGCGCA showed an ETS1 binding intensity of 1060.

On to GACAAGCCATGTAGTTGCTGGCAGGAAATCTCAGTC, for which the ETS1 binding intensity was 419.

Turning to CCGTTGCCGCGCTCGTCTTGCCACTTCCTCTGGAGT, the ETS1 binding intensity amounted to 962.

Consider AATCCACCGGAAACACTTAGACGCCGAAACCCCAGT, for which the ETS1 binding intensity turned out to be 9420.

Sequence CCTGGGGTTGCAAAGATGCTCTAACAGGAAGTGGGT came in with an ETS1 binding intensity of 1670.

Turning to CACCCTCACGGAAACAGCTGTGTGTAAGCACCTCCA, the ETS1 binding intensity stood at 585.

The sequence CTCTGGGAAGTGTAGGCGTAGGGCGTCAGGCCCCAG yielded an ETS1 binding intensity of 401.

Sequence CACTTCCCGTGGGAGGATCTTGGGCTGCAGCTAGGG returned an ETS1 binding intensity of 7090.

Sequence AAACTTCCTCTTTTTAGCGCGCAGGCGCCGAAGGGC came in with an ETS1 binding intensity of 14100.

Sequence GCTGAGGCCGGAAGAGGGTGGGGCCGAGGTGGCTAG returned an ETS1 binding intensity of 3830.

Take TCCTCCATGCAGGAAAACCTCTGTGCTCTGGGAGCT: the ETS1 binding intensity turned out to be 370.

Turning to GCTGGCATTTCCTTCCCTCTCTGGGAGGTGCTCCGC, the ETS1 binding intensity stood at 2710.

As to TACCACCTCAGGATGTCTGAACTACATGCAAGCAGG, the ETS1 binding intensity turned out to be 496.

In turn, ACCTTACGGGGGCAGTGGGTGGGTGTCACTTCCTCC returned an ETS1 binding intensity of 866.

ACAGGCTGTCTGCTTCCGTCAGCGGCTATTCCCTTG displayed an ETS1 binding intensity of 1770.

As for ATCAGAGGCGCCACGGACCAGGGGATTTCCTGTGGG, the ETS1 binding intensity came out at 847.

On to GTGGAGGAACAGCGAGCCGCCTTCCTCCCCGGCCCA, for which the ETS1 binding intensity is 378.

CTCTGCAGACAGGAAAGCTAGGTGTGCGTGTACTGT had an ETS1 binding intensity of 500.

Sequence AACCCTTCCTGAAAGTAGATGGGGTATAAACCCCAA returned an ETS1 binding intensity of 1280.

The sequence AAGGCGGTACTTCCTCCAGCATTTGCCGCGAGTTAT came in with an ETS1 binding intensity of 2680.

CCGCGCTTCCTCGCGCTGTGCGCAGCCGTAGACCGA had an ETS1 binding intensity of 821.

As for TGAAGTTGGTGTTTTCCGGGGGCGGATTTTCCATTG, the ETS1 binding intensity was 1100.

In the case of CCTGCCCTGCGTGGATTTGTCACTTCCTGCTCAGAG, the ETS1 binding intensity was determined as 3300.

In the case of AGGGGCAGAGCACAGCACCACCGGAAGTAGGGCTCA, the ETS1 binding intensity was determined as 9450.

In turn, CTAGGCAGACCAAAAACGTTAGGGCAGGAAATGATT displayed an ETS1 binding intensity of 727.

As for CTCACCTCAGGCCTGTGCTGGGGGTGCTTCCTGCTC, the ETS1 binding intensity is 445.

AGCACCCCATTCTACACCTCCACCTCATCCTGCGTC had an ETS1 binding intensity of 431.

For the sequence GGAGCTGCAGCCGAGCTCCGTGTCCACTTCCGGGTT, the ETS1 binding intensity was 2460.

Regarding CTCGTGGGTGCCGGAAGTGGAGGCGGCTGGTGGGGT, the ETS1 binding intensity was found to be 5910.

On to AGAGCGAGGCTGAGGGACCCCAGGATGGGGGACAGG, for which the ETS1 binding intensity stood at 350.

In turn, CCTCCGGAACGGCGCGGGGGATCGTGGGGTGTAGGG had an ETS1 binding intensity of 675.

For the sequence GTAGCGCTGCTGGTCTTTGCGACACCATCCGCGCCT, the ETS1 binding intensity was found to be 399.

For ATGCAGAAATCCAACCTACAGGAAGGTGAGTCAGAA, the ETS1 binding intensity came to 461.

TGGCGTTGGCGGGCTTGGCATGGGGCTTCCTCTGGG yielded an ETS1 binding intensity of 332.

With AAAATTAAAGCAGGAAGTAATCAACCCCATCAAATG, the ETS1 binding intensity came out at 4750.

AAACTTGAGGTGGAGGAGAGCTGAGCACTTCCTATG yielded an ETS1 binding intensity of 402.

Take ACAGAAAGAAGCTGCAGGCCAAGCGGATGTCAGCGG: the ETS1 binding intensity was determined as 670.

Sequence CTCACACCTTATCGCGAGCCCGGCGGATGCTGACGT registered an ETS1 binding intensity of 527.

With GGCCTCGGCCACATCCGGGTTCCACCGAAGATTCGG, the ETS1 binding intensity was found to be 11800.

As for TCCTTGCTGTTTGCTTTCGCCGTTTCCGAACCGAGG, the ETS1 binding intensity came out at 623.

The sequence GGTTCGGTGGGAGTAGAGAGTGAGGAAATGAGTCAT yielded an ETS1 binding intensity of 500.

TGCTGCTCACCTCGCAGAAAGGATATGGGACCGGCG returned an ETS1 binding intensity of 357.

The sequence TGGAGAGCACAGGAAGTGGCCCAGAGCCCAGGCCAA had an ETS1 binding intensity of 8500.

In turn, GAGGCCGTAAGGAGACAGAACTACACATCCTCCGTC registered an ETS1 binding intensity of 426.

In the case of CCTTAGCACAGAGCACCATCTACGGGAAGTCCTAAG, the ETS1 binding intensity was 459.

The sequence GGAACCCGGAGAAGCCCCGCCTCCCGGAAGCGGAGC had an ETS1 binding intensity of 774.

The sequence TTGCGCCGGACGCCACTTTCGGTCCCCGTGGACACG came in with an ETS1 binding intensity of 602.

In turn, CCCATCCATCCGCCTCCAAAGTAACGTCAAGAATTT displayed an ETS1 binding intensity of 2320.

Consider GAAAATCACAGAGGCATTCAAAGACAGGAAGCAGAG, for which the ETS1 binding intensity was determined as 796.

For the sequence CCTAAGTAATCACATTCTCGCTTCCTCCTTCCACAC, the ETS1 binding intensity is 753.

In turn, TGTGTCAACACCTCGGGCAGCTTCCGGTGCGACTGT had an ETS1 binding intensity of 8120.

With TGGGTGCTGCAGGCCAAGCTTTCCCTTCCTTTGAGA, the ETS1 binding intensity came to 298.

Sequence CGGCGCCTTCCGCAGAGGGACTGCAGCTTTCTGCGC yielded an ETS1 binding intensity of 1200.

The sequence CATCTCGCCTTCGGTCTGAGGAAGGGAACAGAAGGT displayed an ETS1 binding intensity of 353.

The sequence CCGCCACCGGAAGCGCCCTCCTAATCCCCGGAGCGC had an ETS1 binding intensity of 11800.

Take AATCATCAGGGAAATGCAAATCAAAACCCCAATCAG: the ETS1 binding intensity was 415.

The sequence TCTCTATGGTTTCCGTTGGGTGTGTGATTTTTTTGT yielded an ETS1 binding intensity of 2300.

For GAGGTAGCCACCCACGACCAATCAGGAAACGGCGGC, the ETS1 binding intensity turned out to be 464.

AGCCTACATCCTGCACTGCTTAATCACAGCCCGCCT returned an ETS1 binding intensity of 6070.

Take ACCCTCAGCTGCGCCTACAGACACTTCCTAGAATCT: the ETS1 binding intensity worked out at 480.

CTCTCCAGATCGCGCATTTTGGGTCTCGGAAGAGGT yielded an ETS1 binding intensity of 388.

TCTTGTTTCTTCCGTTACCGGAGCGCGGCCACGTGA displayed an ETS1 binding intensity of 2590.

Sequence AGACTCCATCCGCCATGTTGGATGCCGTAGATTCGC displayed an ETS1 binding intensity of 2440.

GGTCCGGAAACGATTCTGGACCTGCAGGTATATCCA came in with an ETS1 binding intensity of 2860.

In turn, ATTACAGGAAGTATGTCCTCCTCTGCCTAAGCACTG had an ETS1 binding intensity of 4800.

CCAGGAAGGCGCCTGCATCCTCCAAGCCCAGAGAGC registered an ETS1 binding intensity of 640.

As to GGACCAGCGGCGACCTGTAGGCGGAAGTCCGTGGCT, the ETS1 binding intensity is 889 ± 43.

Sequence AAATTCTTGACGTTACTTTGGAGGCGGATGGATGGG gave an ETS1 binding intensity of 440.

For the sequence GTGCTGGGGTGCTAGAGCGCGGCGCGACCGGACGCT, the ETS1 binding intensity stood at 412.

The sequence ACAGGCTGCTGTCGTTGACCAAGCTTCCTTTGCTGG registered an ETS1 binding intensity of 367.

As to CCATTCCTACGGCCTTCATTGCTGCATCCGGTGGAG, the ETS1 binding intensity amounted to 2480.

In the case of ACCACCCCCCGTTTCCTCCGAAGTGGCTGGTGCCTT, the ETS1 binding intensity was determined as 1440.

GGCAAGACCAATCGGCGGCCACACGGAAGTGGGCGG gave an ETS1 binding intensity of 426.
